{"source": "patent US6339078B1", "about": "“Methods of prevention and treatment of ischemic damage” (University of Florida Research Foundation, Inc., priority 1999, dated 2002)", "test_system": "ovariectomized rats, ischemia induced by middle cerebral artery occlusion (MCAO)", "experiment": "Ischemic area in brain slices after MCAO, estrogen pretreatment", "type": "in vivo, rat", "settings": "10 μg/kg sc injection 2 hours prior to ischemic event, sacrifice at 24 hours", "data": [{"smiles": "C[C@]12CC[C@@H]3c4ccc(O)cc4CC[C@H]3[C@@H]1CC[C@@H]2O", "note": "[17β-estradiol]", "values": [{"measurement": "reduction of ischemic lesion size of the whole coronal section", "setting": "region C (9 mm)", "value": 46.3, "unit": "%"}, {"measurement": "reduction of ischemic lesion size of the whole coronal section", "setting": "region D (11 mm)", "value": 44.1, "unit": "%"}]}]}
